Data taken from the supplement of paper PMC4166925.
± gives the standard deviation of the averaged measurements. Whole data set: some 33,000 sequences, median “E-score (dimensionless, -0.5 to 0.5)” near -0.046, cut for the highest 2% near 0.36. The list shows a part of the results.

The sequences below were run on T1, SpTbr T-box DNA-binding domain (GST fusion) (assay: PBM E-score of 8-mer (E-score (dimensionless, -0.5 to 0.5)); Tbr is Tbrain of the sea star Patiria miniata (Pm) or the sea urchin Strongylocentrotus purpuratus (Sp); higher = stronger binding preference; most listed sequences are background and not binding sites). Conditions: the construct has about 5 more residues each side.
T1 sequence: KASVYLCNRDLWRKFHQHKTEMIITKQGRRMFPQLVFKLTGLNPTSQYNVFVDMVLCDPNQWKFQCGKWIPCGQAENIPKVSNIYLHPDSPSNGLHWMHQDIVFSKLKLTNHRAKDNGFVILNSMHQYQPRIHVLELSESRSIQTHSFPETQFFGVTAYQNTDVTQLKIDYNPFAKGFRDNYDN
Summary of the method: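 Each ungapped 8-mer received an enrichment E-score from the Universal PBM Analysis Suite, averaged over duplicate arrays. The proteins were Tbr T-box DNA-binding domains, covering the whole T-box plus about five flanking residues, fused to GST and expressed in BL21 E. coli at 20 °C before glutathione affinity purification. Universal Agilent oligonucleotide arrays were made double-stranded by primer extension and incubated with 200 nM protein in PBS (pH 7.5). The arrays were then scanned and quantified, and every 8-mer was scored from probe intensities.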
For CGATCCCA, the “PBM E-score of 8-mer” value was -0.117 ± 0.069. With AAGAAACT the “PBM E-score of 8-mer” value was -0.00543 ± 0.041. With ATCTGTTA the “PBM E-score of 8-mer” value was 0.244 ± 0.028. With ATTATGGC the “PBM E-score of 8-mer” value was -0.0847 ± 0.046. For CAAAATGA, the “PBM E-score of 8-mer” value was 0.0486 ± 0.062. In the case of GTGGTATA, the “PBM E-score of 8-mer” value is reported as -0.0312 ± 0.084. For AACATAAT, the “PBM E-score of 8-mer” value was 0.0816 ± 0.016. For CCTTATCC, the “PBM E-score of 8-mer” value was -0.109 ± 0.027. For CCCCCTGA, the “PBM E-score of 8-mer” value was -0.114 ± 0.036. For ACGAGCAA, the “PBM E-score of 8-mer” value was -0.0965 ± 0.013. In the case of CGCCGAAG, the “PBM E-score of 8-mer” value is reported as -0.157 ± 0.043. With ACCACTGG the “PBM E-score of 8-mer” value was 0.0214 ± 0.011. In the case of GCCCAGGC, the “PBM E-score of 8-mer” value is reported as -0.187 ± 0.059. In the case of ACTGCAAT, the “PBM E-score of 8-mer” value is reported as 0.0547 ± 0.048. ACTCGCGA was tested, and the “PBM E-score of 8-mer” value was 0.3822 ± 0.0018. In the case of GACGCGCC, the “PBM E-score of 8-mer” value is reported as 0.126 ± 0.12. AGCAGCAG was tested, and the “PBM E-score of 8-mer” value was -0.2678 ± 0.0013. For CGACCACA, the “PBM E-score of 8-mer” value was 0.191 ± 0.044. ACAATTCC was tested, and the “PBM E-score of 8-mer” value was -0.113 ± 0.0042. In the case of ACAACGAA, the “PBM E-score of 8-mer” value is reported as -0.136 ± 0.041. For AGCTGGAG, the “PBM E-score of 8-mer” value was -0.184 ± 0.011. In the case of ATGCGCCC, the “PBM E-score of 8-mer” value is reported as -0.24 ± 0.028. For ATCGTTTA, the “PBM E-score of 8-mer” value was 0.0678 ± 0.1. With CGTTGGGA the “PBM E-score of 8-mer” value was -0.121 ± 0.024. For TGAATAAA, the “PBM E-score of 8-mer” value was 0.07 ± 0.1. For GACAGTAA, the “PBM E-score of 8-mer” value was 0.171 ± 0.015. ATGAAGGG was tested, and the “PBM E-score of 8-mer” value was -0.2 ± 0.029. For CTACGGAG, the “PBM E-score of 8-mer” value was -0.282 ± 0.033. With GCCAGACC the “PBM E-score of 8-mer” value was -0.0946 ± 0.049. For AGGGCTTG, the “PBM E-score of 8-mer” value was -0.26 ± 0.036. In the case of CAAGCTAC, the “PBM E-score of 8-mer” value is reported as -0.147 ± 0.014. For CGGGATAG, the “PBM E-score of 8-mer” value was -0.0195 ± 0.046. In the case of CCCCTAGC, the “PBM E-score of 8-mer” value is reported as -0.187 ± 0.036. With GGCACGCA the “PBM E-score of 8-mer” value was 0.0415 ± 0.024. ACAGTAAC was tested, and the “PBM E-score of 8-mer” value was 0.143 ± 0.002. For ACGCGGGG, the “PBM E-score of 8-mer” value was 0.0235 ± 0.015. In the case of CACTGCTA, the “PBM E-score of 8-mer” value is reported as 0.13 ± 0.011. With AACTAGTG the “PBM E-score of 8-mer” value was 0.0896 ± 0.072. In the case of CGTCCGAG, the “PBM E-score of 8-mer” value is reported as -0.236 ± 0.0068. For CAATCCTA, the “PBM E-score of 8-mer” value was -0.0316 ± 0.041. For AGTCGGGG, the “PBM E-score of 8-mer” value was -0.15 ± 0.0087. AGACCTAG was tested, and the “PBM E-score of 8-mer” value was -0.262 ± 0.071. In the case of GGCTGACC, the “PBM E-score of 8-mer” value is reported as -0.102 ± 0.043. For ATAGGCGA, the “PBM E-score of 8-mer” value was 0.0635 ± 0.033. In the case of GATAACCA, the “PBM E-score of 8-mer” value is reported as -0.0424 ± 0.067. In the case of CGGTCTAC, the “PBM E-score of 8-mer” value is reported as -0.0378 ± 0.013. With AACAATCG the “PBM E-score of 8-mer” value was 0.0971 ± 0.0099. CGTTAGTA was tested, and the “PBM E-score of 8-mer” value was 0.152 ± 0.026. For CGACGAGC, the “PBM E-score of 8-mer” value was -0.127 ± 0.068. In the case of ACTGGGGC, the “PBM E-score of 8-mer” value is reported as -0.11 ± 0.024. For CCTTAAGC, the “PBM E-score of 8-mer” value was -0.0651 ± 0.0015. For TCGGAGAA, the “PBM E-score of 8-mer” value was -0.147 ± 0.071. In the case of TCGAGCAA, the “PBM E-score of 8-mer” value is reported as -0.0452 ± 0.042. With AGGACATG the “PBM E-score of 8-mer” value was -0.121 ± 0.05. For CGGACTTA, the “PBM E-score of 8-mer” value was -0.29 ± 0.053. GACAGGTC was tested, and the “PBM E-score of 8-mer” value was 0.19 ± 0.032. In the case of GCAGGCGA, the “PBM E-score of 8-mer” value is reported as 0.0822 ± 0.01. With CAGCGTTA the “PBM E-score of 8-mer” value was 0.122 ± 0.026. For TAAATAAA, the “PBM E-score of 8-mer” value was -0.0938 ± 0.088. For ACTAAGTA, the “PBM E-score of 8-mer” value was -0.237 ± 0.06. AAGGGCGC was tested, and the “PBM E-score of 8-mer” value was 0.131 ± 0.0052. CCGGCCAC was tested, and the “PBM E-score of 8-mer” value was 0.0369 ± 0.11. In the case of AGGTATGC, the “PBM E-score of 8-mer” value is reported as -0.00842 ± 0.034. CATCTACC was tested, and the “PBM E-score of 8-mer” value was -0.123 ± 0.039. For ATAGTGCG, the “PBM E-score of 8-mer” value was 0.169 ± 0.021. In the case of AACACGGA, the “PBM E-score of 8-mer” value is reported as -0.0154 ± 0.026. With CAAAAATG the “PBM E-score of 8-mer” value was -0.167 ± 0.085. With AAAGGTTG the “PBM E-score of 8-mer” value was 0.0806 ± 0.034. With CCTGACGC the “PBM E-score of 8-mer” value was 0.248 ± 0.017. With AGGACAGG the “PBM E-score of 8-mer” value was -0.214 ± 0.028. In the case of CTATTTGA, the “PBM E-score of 8-mer” value is reported as -0.258 ± 0.014. With GAAGATAC the “PBM E-score of 8-mer” value was -0.0451 ± 0.039. TAATGTCA was tested, and the “PBM E-score of 8-mer” value was -0.0899 ± 0.017. In the case of CCCACCCA, the “PBM E-score of 8-mer” value is reported as 0.185 ± 0.054. For AACTAGGA, the “PBM E-score of 8-mer” value was -0.291 ± 0.027. For AACTATGG, the “PBM E-score of 8-mer” value was -0.272 ± 0.00047. For GCTAGGCC, the “PBM E-score of 8-mer” value was -0.218 ± 0.025. AGTATTAT was tested, and the “PBM E-score of 8-mer” value was -0.205 ± 0.093. In the case of AGAACTTC, the “PBM E-score of 8-mer” value is reported as -0.123 ± 0.047. ACCAGAGA was tested, and the “PBM E-score of 8-mer” value was 0.0337 ± 0.016. GGCGAATA was tested, and the “PBM E-score of 8-mer” value was 0.0396 ± 0.11. GCACTAAA was tested, and the “PBM E-score of 8-mer” value was 0.161 ± 0.031. GTTAACGA was tested, and the “PBM E-score of 8-mer” value was 0.274 ± 0.033. In the case of CAGCTGGA, the “PBM E-score of 8-mer” value is reported as -0.271 ± 0.033. For ACTGGACG, the “PBM E-score of 8-mer” value was 0.0312 ± 0.041. In the case of AGATTGTC, the “PBM E-score of 8-mer” value is reported as 0.204 ± 0.012.
